PubChem BioAssay AID1346428 (National Center for Advancing Translational Sciences (NCATS), 2018)
The campaign covered roughly 48,000 compounds. About 1,200 (2.5%) were called active. About 2% were inconclusive and are not listed.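 Rule for the calls: active = activation of at least 60% and not above a set upper limit (about 1 call in 100 departs from these limits); inconclusive = activation of 40% to 60%, or above that upper limit; inactive = activation under 40%.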 Some of the results follow.

What follows are compounds tested against Probable G-protein coupled receptor 32 (Homo sapiens) (UniProt O75388) (assay: qHTS for Agonists of Human Resolvin D1 Receptor DRV1). Details: CHO-K1 GPR32 beta-arrestin PathHunter luminescence, 90 min; at 76.9 µM; active compounds read high; zero percent set by DMSO-only wells.
Summary of the method: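 Cells are plated overnight, treated with compounds in DMSO for 90 minutes at 37 °C, and developed with PathHunter detection reagent for 1 hour before luminescence is read; signal reflects beta-arrestin binding to GPR32 in engineered CHO-K1 cells.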
Note: 0% is about no effect.

Sequence of UniProt O75388 (O75388 whole entry, looked up): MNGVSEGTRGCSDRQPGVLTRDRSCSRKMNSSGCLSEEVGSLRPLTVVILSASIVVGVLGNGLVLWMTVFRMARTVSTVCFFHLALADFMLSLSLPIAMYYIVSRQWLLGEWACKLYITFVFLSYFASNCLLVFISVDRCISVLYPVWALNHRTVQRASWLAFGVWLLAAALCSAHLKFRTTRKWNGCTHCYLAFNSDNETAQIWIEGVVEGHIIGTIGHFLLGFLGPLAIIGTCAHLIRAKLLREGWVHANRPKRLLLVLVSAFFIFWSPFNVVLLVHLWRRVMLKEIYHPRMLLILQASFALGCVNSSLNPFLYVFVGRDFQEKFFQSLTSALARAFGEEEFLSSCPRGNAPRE

activation, inactive:
COc1ccc(S(=O)(=O)NC(C)C)cc1-n1cnnn1 -2.91%
COc1ccc(C(=O)NCC(c2cccnc2)N2CCN(c3ccccc3OC)CC2)cc1 (stereo not drawn) 12.6%
COc1cccc(NC(c2nnc(-c3ccccc3)o2)c2ccc(F)cc2Cl)c1 (stereo not drawn) -13.2%
COc1ccc(Br)cc1CNC(=O)CN1C(=O)CCCc2ccccc21 20.9%
CC(C)(C)c1ccc(C(=O)Nc2nc3nc(-c4ccccc4)cc(=O)n3[nH]2)cc1 47.6%
Cc1ccc(NC(=O)Cn2c(SCc3cccc(F)c3)nc3ccncc32)c(C)c1 -0.997%
C#CC(C)(CC)NC(=O)Cn1nnc(-c2ccc(OCc3ccccc3Cl)cc2)n1 (stereo not drawn) 9.7%
COCCCNC(=O)C1CCCN(c2ncnc3onc(C)c23)C1 (stereo not drawn) 26.5%
COc1ccc(CCNC(=O)c2ccc3c(Cl)c4c(nc3c2)CCCC4)cc1OC 24.3%
Cc1c(CCC(=O)NCc2ccc(F)cc2)c(=O)oc2cc(O)ccc12 -0.264%
CCCN(CCC)C(=O)c1c[nH]c2ccc(S(=O)(=O)N(C)c3ccc(OCC)cc3)cc2c1=O -6.92%
Cc1ccccc1OCC(=O)Nc1ccc(C(=O)OCc2cc(=O)n3c(C)csc3n2)cc1 -11.7%
CCc1ccc(C(=O)c2cn(CC(=O)Nc3ccc4c(c3)OCCO4)c3ccc(CC)cc3c2=O)cc1 9.27%
Cc1ccc2oc(C(=O)Nc3nc(-c4ccc(F)cc4)ns3)c(C)c2c1 -0.157%
COc1ccc(C2c3c(oc4cc(C)cc(C)c4c3=O)C(=O)N2Cc2ccco2)cc1OC (stereo not drawn) 11.1%
COc1cccc(NC(=O)CSC2=Nc3ccccc3C3=NC(CC(=O)NCc4cccs4)C(=O)N23)c1 (stereo not drawn) -13.4%
CC(=O)N1CCN(c2nc3c(F)cc(F)cc3s2)CC1 -3.89%
COc1ccc(Cn2c(CNC(=O)Cc3cccc([N+](=O)[O-])c3)nc3cccnc32)cc1 -32%
Cc1cccc(N2CCN(C(=O)c3cc4c(=O)[nH]c5ccc(C)cc5c4s3)CC2C)c1 (stereo not drawn) -2.56%
COc1ccc(CNC(=O)CSCc2cnn(-c3ccccc3)c2-n2cccc2)cc1OC 12.2%
Cc1ccc(OCCCn2c(-c3ccc(Cl)cc3)nc3ccccc3c2=O)c(C)c1 -6.98%
Clc1ccc(-n2c(Cc3ccccc3)nnc2SCc2nc(-c3cccs3)no2)cc1 -23.2%
COc1ccc(NC(=O)c2oc3ccccc3c2NC(=O)C2CCCCC2)c(OC)c1 -3.86%
Cc1cccc(-n2c(=O)c3c4c(sc3n3c(C)nnc23)CCCC4)c1 -4.15%
Nc1c(C(=O)Nc2ccccc2)sc2nc3c(cc12)CN(Cc1ccccc1)CC3 -5.19%
Cc1ccc(NC(=O)C2CCCN(S(=O)(=O)c3c(C)noc3C)C2)cc1 (stereo not drawn) -6.08%
NS(=O)(=O)c1ccc(C(=O)O)cc1 -2.1%
CCOC(=O)c1scc(-c2ccc(C)cc2)c1S(=O)(=O)Nc1cc(OC)ccc1OC 0.116%
CCCCN(C)C(=O)c1ccc2c(c1)N(Cc1cccc(F)c1)C(=O)c1ccccc1S2 -53.3%
CCOc1cc(C#N)c(-n2nnc3c(sc4nc(C)cc(C)c43)c2=O)cc1OCC 1.17%
Cc1cc(C)c(/C=C/c2onc(C)c2S(=O)(=O)N2CCC(C(=O)NCCc3ccccc3)CC2)c(C)c1 -19.7%
Cc1cccc(N(CC(=O)NCCSCc2ccccc2)S(=O)(=O)c2ccccc2)c1C -0.289%
O=C(Cn1c(=O)c2cccn2c2ccccc21)NCc1ccccc1F -5.39%
COC(=O)c1ccc(NC(=O)Cn2cnc3c2c(=O)n(C)c(=O)n3C)cc1 -10.9%
CCc1cccc(C)c1NC(=O)C1CCCN1S(=O)(=O)c1cccc2nsnc12 (stereo not drawn) -6.81%
CCn1c(=O)c(=O)n(CC)c2cc(S(=O)(=O)Nc3ccc(C)cc3)ccc21 -3.7%
CCCC(=O)N1CCN(c2nc3ccc(F)cc3s2)CC1 6.27%
Cc1ccc(C(=O)c2cn(Cc3ccccc3)c3nc(C)ccc3c2=O)cc1 47.2%
Cc1nc(N2CCCC2)c2c(C(=O)N3CCN(c4cc(Cl)ccc4C)CC3)c(C)oc2n1 -27.3%
CC(C)N(C(=O)Cn1cc(S(=O)(=O)Cc2ccc(Cl)cc2)c2ccccc21)C(C)C -12.8%
COc1cc(Nc2nc(SCC(=O)c3ccc(Cl)c(Cl)c3)nc3ccccc23)cc(OC)c1 -25.5%
O=C(CCC1N=C2c3ccccc3N=C(SCC(=O)Nc3ccc(F)cc3)N2C1=O)NCc1ccco1 (stereo not drawn) -8.65%
O=C(Nc1ccc2nc3n(c(=O)c2c1)CCCCC3)c1cccc(C(F)(F)F)c1 -2.97%
Nc1nn(-c2ccccc2)nc1C(=O)OCc1c(F)cccc1Cl -22.6%
Cc1ccc(N(Cc2cccs2)C(=O)c2ccco2)cc1 -20.6%
COc1ccc(-n2c(SCC(=O)NCc3ccccc3)nc3c([nH]c4ccccc43)c2=O)cc1 -7.76%
Nc1c(S(=O)(=O)O)cc(Nc2ccc(Nc3nc(Cl)nc(Nc4ccc(S(=O)(=O)O)cc4)n3)c(S(=O)(=O)O)c2)c2c1C(=O)c1ccccc1C2=O -54.7%
COc1ccc(NC(=O)CC2Nc3ccccc3NC2=O)cc1 (stereo not drawn) -27.7%
COc1ccc(Nc2nn(-c3ccc(OC(F)(F)F)cc3)nc2C(C)=O)cc1 7.05%
Cc1cc(C(=O)NCc2ccccc2)c2c(C)nn(-c3cccc(F)c3)c2n1 -18.4%
CCCCN(C)C(=O)Cn1cnc2sc(C)c(S(=O)(=O)N3CCC(C)CC3)c2c1=O -8.74%
COc1ccc(OC)c(NC(=O)c2ccc3c(Cl)c4c(nc3c2)CCCC4)c1 -16.2%
COc1cc(OC)c(NC(=O)N2CCC(CN3CCCC3)CC2)cc1Cl -13.8%
CCOC(=O)c1ccc(Nc2nn3c(=O)c4ccccc4nc3s2)cc1 5.13%
COc1ccccc1Nc1ncnc2scc(-c3ccc(F)cc3)c12 -7.13%
Cc1nn(-c2ccccc2)c2c1N(CC(=O)N1CCN(c3ccccc3F)CC1)C(=O)CS2 29.2%
Cc1ccc(CNc2ccc3cc(S(=O)(=O)N4CCCCC4)ccc3n2)cc1 -18.3%
CCN(CC)c1ccc(C2Nc3ccccc3-c3cc(C)nn32)cc1 (stereo not drawn) -18.7%
Cc1ccc(S(=O)(=O)c2nc(-c3ccc(F)cc3)oc2N2CCN(c3ccccc3)CC2)cc1 -18.8%
COc1ccc(C2(CNC(=O)C(=O)Nc3ccccc3C)CCCC2)cc1OC -18.1%
COc1ccc(CNC(=O)c2cccn2-c2nnc(N3CCCC3)s2)c(OC)c1 27%
CCCCN(CCCNC(=O)c1cc(Nc2ccccc2OC)nc2ccccc12)c1ccccc1 -0.0029%
CCC(CC)c1nn2c(=O)cc(COc3ccc(NC(=O)c4ccccc4C)cc3)nc2s1 26.2%
COc1cc(NC(=O)CC2C(=O)OCCN2Cc2ccccc2)cc(OC)c1 (stereo not drawn) -3.25%
Cc1ccccc1NC(=O)c1ccc2[nH]c(C)c(C)c2c1 -4.46%
COc1cc(NS(=O)(=O)c2ccc(NC(=O)c3cccc(F)c3)cc2)nc(OC)n1 8.85%
COc1ccc(C(=O)NCC(c2cccnc2)N2CCN(c3ccccc3)CC2)cc1 (stereo not drawn) 5.34%
CCCc1nn2c(=O)cc(COC(=O)c3cccc(NC(=O)c4cccs4)c3)nc2s1 -39.4%
CCc1cccc(C)c1NC(=O)CCS(=O)(=O)c1cc(Br)cc2c1N(C(=O)C1CC1)CC2 -13%
O=C(Nc1ccc(C(=O)OCc2cc(=O)n3c4c(sc3n2)CCCC4)cc1)c1ccc(F)cc1 -10.1%
O=C(CCCCn1c(=O)c2ccccc2n(CC(=O)Nc2cccc(C(F)(F)F)c2)c1=O)NCc1ccc2c(c1)OCO2 -30.3%
CCc1nn2c(-c3ccccc3OC)ccnc2c1-c1ccccc1 -7.85%
Cc1c(Cl)cccc1NC(=O)Cn1c(=O)n(Cc2ccco2)c(=O)c2sc3ccccc3c21 -7.52%
COc1ccc(S(=O)Cc2ccc(C(=O)N3CCN(c4cccc(C)c4C)CC3)o2)cc1 (stereo not drawn) 4.18%
Cc1c(C(=O)NCc2ccc(Cl)cc2)sc2nc3n(c(=O)c12)CCCCC3 -7.68%
Cc1ccc(-n2nnc(-c3nc(-c4cccs4)no3)c2N)cc1C 3.36%
Cc1ccccc1NC(=O)c1ccc(F)c(S(=O)(=O)N2CCN(c3ccccc3F)CC2)c1 -16.8%
COc1ccc(-c2nc(CSc3nncn4c3cc3oc(C)cc34)c(C)o2)cc1 -7.98%
O=C(NCCc1ccccc1)C(=O)NCC(c1ccco1)S(=O)(=O)c1cccs1 (stereo not drawn) -11.3%
CCOC(=O)c1ccccc1NC(=O)CN1CCCN(Cc2cc(C)ccc2C)S1(=O)=O -0.744%
COc1cc(NC(=O)CN2C(=O)c3ccccc3Sc3ccc(C(=O)N4CCCC4)cc32)cc(OC)c1 -16.3%
COc1ccc(OC)c(CCNC(=O)c2ccc3c(c2)c(C)c(C)n3Cc2ccccc2)c1 -11.5%
CCOC(=O)c1[nH]c2ccccc2c1NC(=O)c1ccccc1F 17.5%
